Hit rate of the full screen: of about 52,000 compounds, about 4,300 (8.3%) were called active. No stated cut-off is given here; in the data, active means survival mostly below about 52% (no sharp cut-off); inactive means mostly above about 56%. This is one part of the list.

The subject of this test is DeltatarO mutant. The experiment in a line: S. aureus survival, RN4220 and DeltatarO strains – OD600, teichoic acid synthesis inhibitors, primary screen (AID 463173). The following applies: S. aureus RN4220 wild type/DeltatarO growth, OD600, 18 h, hits give low values, screened at 18.75 µg/mL (by protocol).
With `COc1cccc(-c2cc(C(F)(F)F)nc(NCc3ccc(F)cc3)n2)c1`, the survival was active: 4%.

As to `COc1cccc(-c2nc(S(=O)(=O)c3ccccc3)c(NCc3ccccc3)o2)c1`, the survival was inactive: 61%. For `Cn1c(=O)c2sccc2n2c(CCCC(=O)Nc3ccc(F)c(F)c3)nnc12`, the survival is inactive: 125%. As for `COc1ccc(CCNC(=O)c2ccc3c(c2)nc2n3CCOC2)cc1OC`, the survival is active: -2%. Regarding `Cc1c(C(=O)Nc2ccc(F)cc2F)nnn1-c1ccccc1Br`, the survival was inactive: 66%. Consider `COc1ccc(C(=O)/C=C/c2cn(CC(O)CN(CC(C)C)CC(C)C)c3ccccc23)cc1OC` (configuration not stated), for which the survival is inactive: 91%. As for `COCCCNC(=O)c1c(C)nn(-c2ccc(F)cc2)c1-n1cccc1`, the survival is inactive: 85%. Then `CC(C)c1ccc(NC(=O)CCS(=O)(=O)c2ccc(Br)s2)cc1`, with inactive: 114%; and `CC1=C(C(=O)Nc2ccccc2)C(c2ccncc2)n2nc(SCc3ccccc3)nc2N1` (configuration not stated), with inactive: 72%.

In the case of `Cc1cccc2cc(C#N)c(SCC#N)nc12`, the survival is inactive: 99%. Turning to `Cc1cccc(C)c1NC(=O)c1ccc2nc(CCc3ccccc3)oc2c1`, the survival was inactive: 69%. For `Cc1cccc(NC(=O)c2sc3cccc(Cl)c3c2Cl)c1`, the survival is active: 11%. Consider `COc1ccc(CNC(=O)Cc2c(C)c3ccc(O)cc3oc2=O)cc1`, for which the survival is inactive: 55%. Consider `CCCC1CC(C)(/C(C)=N\NC(N)=S)OC1=O` (configuration not stated), for which the survival was inactive: 98%. As to `NNc1c(O)c(C(=O)O)cc2ccccc12`, the survival was inactive: 69%. With `CNC(=O)c1c(NC(=O)c2cc(=O)c3ccccc3o2)sc2c1CCC2`, the survival was inactive: 94%. On to `CCCCNC(=O)CSc1c2c(nc3ccc(Cl)cc13)CCCC2`, for which the survival is active: 38%. As for `COc1ccc(-c2nc3ccccc3s2)cc1NC(=O)c1ccccc1OC`, the figure is inactive: 77%; as for `O=C(CSc1nc2ccccc2n1Cc1cccc(Cl)c1)N1CCN(c2ccc(F)cc2)CC1`, inactive: 80%.

Turning to `c1ccc(N2CCN(c3ncnc4c3nc3n4CCCC3)CC2)cc1`, the survival is inactive: 73%. As for `Cc1cc2oc(C(=O)Nc3cccc(-c4nc5ccccc5o4)c3)c(C)c2cc1Cl`, the survival was inactive: 80%. `O=C(Nc1ccc(Cl)cc1)c1ccc2c(c1)N(Cc1ccccc1)C(=O)c1ccccc1S2(=O)=O`: the survival was inactive: 110%. Regarding `COc1ccc(OC)c(CNC(=O)Cn2nc(C)c3c(C)n(-c4ccccc4)nc3c2=O)c1`, the survival is inactive: 92%.

Consider `CCOc1ccccc1CNC(=O)CC(C)n1ccc(C)n1` (configuration not stated), for which the survival was inactive: 77%. In the case of `CCc1nn(CC(=O)NCc2cccc(OC)c2OC)c(=O)c2cc3occc3n12`, the survival is inactive: 126%. On to `COc1cccc2cc(C(=O)N3CCCCC3)c(=O)oc12`, for which the survival is inactive: 85%.

As for `COc1ccc(NC(=O)C2=C(C)Nc3nc(SC)nn3C2c2cc(OC)ccc2OC)cc1` (configuration not stated), the survival is inactive: 87%.

On to `Cc1nnc(N2CCC(C(=O)NCc3ccc(N(C)C)cc3)CC2)c2nn(-c3ccccc3)c(C)c12`, for which the survival is inactive: 97%. In the case of `O=C(NCCCO)C(=O)Nc1c2c(nn1-c1ccc(F)cc1)CSC2`, the survival is inactive: 91%. As to `CC(C)(C)c1cn2ccc3ccccc3c2n1`, the survival is inactive: 108%.

On to `Cc1ccc(NC(=O)c2cc(-c3ccc4c(c3)OCO4)on2)cc1`, for which the survival is inactive: 75%. Consider `CC1=C(C(=O)Nc2ccc(C)cc2)C(c2ccccc2Cl)n2nnnc2N1` (configuration not stated), for which the survival was inactive: 144%. In the case of `CCOc1ccc(CNC(=O)COc2cc(=O)n(C)c3ccccc23)cc1`, the survival is inactive: 67%. `COc1ccc(N(C)C(C)=O)cc1`: the survival is inactive: 91%. As for `Fc1ccc(CNc2nc3c(-c4ccc(F)cc4)nnn3c3ccccc23)cc1`, the figure is inactive: 105%; as for `COc1cc(C(=O)NCc2ccc3c(c2)CCN3C(=O)c2ccncc2)cc(OC)c1OC`, inactive: 101%; as for `Cc1ccc(NC(=O)NCCc2c(C)nn(C)c2C)c(Cl)c1`, inactive: 72%. With `CCCCSc1ncnc2c1sc1nc(N3CCOCC3)c3c(c12)CCCC3`, the survival is inactive: 77%.

With `COc1ccc(-c2noc(CSCC(=O)Nc3ccc(C)cc3Br)n2)cc1OC`, the survival is inactive: 87%. As for `COc1cccc(/C=C/c2nc(C#N)c(N(C)Cc3ccccc3)o2)c1`, the figure is inactive: 73%; as for `COCCCNC(=O)CN1C(=O)c2c(c3ccccc3n2C)C1c1ccc(OC)cc1` (configuration not stated), inactive: 83%. As to `Cc1nn2c(=O)cc(COC(=O)c3ccc(C(C)(C)C)cc3)nc2s1`, the survival was inactive: 78%.

Take `CSc1cccc(NC(=O)CN(C)S(=O)(=O)c2ccc3c(c2)n(C)c(=O)c(=O)n3C)c1`: the survival is inactive: 87%. For `Cc1cccc(C(=O)N2CCC(C)CC2)c1`, the survival was inactive: 94%. Regarding `O=C(NCCN1CCOCC1)N1CCNC1=O`, the survival is inactive: 58%.

For `O=c1ccc2cc(S(=O)(=O)N3CCCC3)ccc2[nH]1`, the survival was inactive: 101%. As for `COc1cc(NC(=O)c2ccc(C(=O)Nc3cc(OC)c(Cl)cc3OC)cc2)c(OC)cc1Cl`, the survival was inactive: 60%. On to `CCCN1CCN(CCCNC(=O)Cn2nc(C)n3c(cc4cc(F)ccc43)c2=O)CC1`, for which the survival was inactive: 93%. As to `CCC(=O)N1CCc2cc(Br)cc(S(=O)(=O)CCC(=O)NCc3ccccc3)c21`, the survival was inactive: 90%. As for `Cc1cccc(-n2ccnc2SCC(=O)Nc2ccccc2C(F)(F)F)c1`, the survival was inactive: 69%. As for `CCn1cc(C(=O)NCCc2ccccc2)c(=O)c2cc(S(=O)(=O)N3CCOCC3)ccc21`, the figure is inactive: 81%; as for `COc1ccc(CNC(=O)CCc2c(C)nc3c(c2C)c(=O)n(C)c(=O)n3C)cc1`, inactive: 115%.

Take `CCc1ccc(NC(=O)CSC2=Nc3ccccc3C3=NC(CCC(=O)NCc4cccs4)C(=O)N23)cc1` (configuration not stated): the survival is inactive: 73%.

Turning to `O=C(/C=C\c1ccco1)Oc1cccc2cccnc12`, the survival is active: 2%. As for `COc1ccc(NC(=O)c2c(C)oc3ccc(O)c(CN4CCN(C)CC4)c23)cc1Cl`, the survival is inactive: 68%. With `COc1ccc(CCNC(=O)c2ccc(CS(=O)(=O)c3ccc(C)cc3)o2)cc1OC`, the survival is inactive: 79%. As for `CCOC(=O)C1CCCN(CCC(=O)Nc2ccc(OC)cc2OC)C1` (configuration not stated), the figure is inactive: 164%; as for `COc1cccc(N2CCN(S(=O)(=O)c3ccc(-c4cnc(C5CC5)o4)cc3)CC2)c1`, inactive: 82%.

As to `CC1CCN(S(=O)(=O)c2ccc3nc(-c4cccnc4)cc(C(=O)NCCCOC(C)C)c3c2)CC1`, the survival is inactive: 70%. As for `COc1ccc2[nH]cc(CCNC(=O)Nc3ccccc3C)c2c1`, the survival was inactive: 45%. Regarding `Cc1ccc(Cl)cc1NC(=O)c1oc2ccc(S(=O)(=O)N3CCC4(CC3)OCCO4)cc2c1C`, the survival was inactive: 67%. For the molecule `Cc1ccc2sc(N3CCN(C(=O)C4COc5ccccc5O4)CC3)nc2c1C` (configuration not stated), the survival is inactive: 144%. Regarding `COc1ccc(C)cc1NC(=O)CN1CCN(CC(=O)Nc2ccccc2F)CC1`, the survival was inactive: 96%. In the case of `Cc1cc(C)c(NC(=O)c2sc3nc(C)cc(C)c3c2N)c(C)c1`, the survival was inactive: 52%. Regarding `COc1cc(CN2CCc3nc(Nc4ccc5c(c4)OCCO5)ncc3C2)cc(OC)c1OC`, the survival is inactive: 91%.

Regarding `CCC(=O)N1CCc2cc(S(=O)(=O)NC(C(=O)NCc3ccc(OC)cc3)C(C)C)ccc21` (configuration not stated), the survival was inactive: 92%.

Turning to `Cc1ccccc1-n1c(SCC(=O)N(C(C)C)C(C)C)nnc1-c1cccnc1`, the survival is inactive: 99%.

In the case of `O=C(NC1CCCC1)c1cc2ccccc2oc1=O`, the survival was inactive: 82%. For the molecule `O=C(NC1CCCCCC1)C1CCCO1` (configuration not stated), the survival is inactive: 89%.

For `Cc1ccc(Cn2c(C)c(CNC3CCCCC3)c(C(=O)O)c2C)cc1`, the survival is inactive: 90%.

With `COc1ccc(OC)c(CCNC(=O)CCCc2nnc3n(C)c(=O)c4sccc4n23)c1`, the survival is inactive: 95%. Take `COc1cccc(N2C(=O)CSC23C(=O)N(CC(=O)Nc2cc(C)ccc2C)c2ccccc23)c1` (configuration not stated): the survival was inactive: 94%.

As to `COC(=O)c1ccc(NC(=O)c2nn(C)c3c2CS(=O)(=O)c2ccccc2-3)cc1`, the survival was inactive: 81%.

As for `CCOC(=O)c1cc2c(=O)n3ccccc3nc2n(Cc2ccco2)c1=NC(=O)c1cc(C)cc(C)c1`, the survival is active: 29%. As for `CCc1ccccc1NC(=O)CC(c1ccc(F)cc1)N1Cc2ccccc2C1=O` (configuration not stated), the figure is inactive: 117%; as for `O=C(Nc1ccccc1C(=O)OCc1cc(=O)n2ccsc2n1)c1ccccc1Cl`, inactive: 60%.

Regarding `COCCn1c(=N)c(C(=O)NC2CCCC2)cc2c(=O)n3cc(C)ccc3nc21`, the survival was inactive: 70%. Then `Cc1nc2cc(NC(=O)Nc3ccccc3Cl)ccc2n1C`, with inactive: 86%. As for `CCN(CC)CCNC(=O)c1cn(CC)c2ccc(S(=O)(=O)N3CCc4ccccc4C3)cc2c1=O`, the survival is inactive: 110%. Then `CCC(=O)N1CCc2cc(Br)cc(S(=O)(=O)N3CCN(c4cc(C)ccc4C)CC3)c21`, with inactive: 56%. Take `COc1cc(-c2cc3n(C)c(C)c(CCC(=O)NC4CCCCC4)c(=O)n3n2)cc(OC)c1OC`: the survival is inactive: 92%. In the case of `CCOC(=O)c1cc(-c2ccc(C)cc2)n(CCC(=O)NCCc2ccc(C)cc2)c1C`, the survival is inactive: 80%. As for `CCC(=O)N1CCc2cc(Br)cc(S(=O)(=O)CCC(=O)Nc3ccc(Cl)cc3)c21`, the survival is inactive: 80%. Consider `Cc1cccc(C)c1NC(=O)CCC(=O)N1Cc2ccccc2Oc2ncccc21`, for which the survival was inactive: 69%. As for `O=C(NC1CCN(Cc2ccccc2)CC1)c1ccc(Cn2c(=O)c3ccccc3n(Cc3cccc(F)c3)c2=O)cc1`, the survival is inactive: 88%.

For the molecule `COC(=O)c1cc2sccc2n1Cc1ccc(F)cc1Cl`, the survival was inactive: 65%. As for `CCOC(=O)c1c(C)oc2ccc(N(C(C)=O)S(=O)(=O)c3c(C)cc(C)cc3C)cc12`, the figure is inactive: 168%; as for `COc1ccc(OC)c(CC2C(=O)Nc3ccc(Br)cc32)c1` (configuration not stated), inactive: 72%; as for `Cc1cc(N2CCN(c3cc(Cl)ccc3C)CC2)n2nc(-c3ccccc3)nc2n1`, inactive: 77%. As to `CCC(C)NC(=O)C1CCN(Cc2cc(OC)ccc2OC)CC1` (configuration not stated), the survival was inactive: 70%.

Turning to `Cc1cc(F)ccc1S(=O)(=O)Nc1cc2c(C(=O)O)c(C)oc2c2ccccc12`, the survival was active: 39%. As to `CCCCNC(=O)C1CCC(Cn2c(=O)c3sccc3n(CC(=O)Nc3ccccc3)c2=O)CC1` (configuration not stated), the survival is inactive: 94%.

For the origin of these results see PubChem BioAssay AID463173 (ICCB-Longwood Screening Facility, Harvard Medical School, 2010).
